Laboratory results taken from PMC6212790.
This is one part of the list. At the low end of the ranking, values are background and their order means little.

What follows are sequences tested against T1, GST-Rok-C97-191 (UniProt O34857) (assay: protein binding microarray). Conditions: Rok is a gene silencer of Bacillus subtilis; high values mean tight binding; most listed sequences are background and not binding sites; double strand, one strand shown.
T1 sequence: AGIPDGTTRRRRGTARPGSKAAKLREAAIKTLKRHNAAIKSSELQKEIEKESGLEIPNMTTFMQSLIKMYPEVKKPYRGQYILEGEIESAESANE
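Further: rank score from −0.5 (least bound) to 0.5 (best bound).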

Row | Sequence | binding signal [E-score]
1 | AAACGTAA | 0.167
2 | CCCGAAAC | -0.179
3 | CCTGTGTA | -0.0412
4 | CGAGCACG | -0.235
5 | AGGGATAC | -0.0149
6 | AGATTTGG | 0.216
7 | ACCCGATG | -0.196
8 | GTGAAAAC | 0.0517
9 | TCCAGGGA | -0.144
10 | GACTATGC | -0.181
11 | ACCGTTAA | 0.2
12 | CACCAGAC | -0.152
13 | AAGACCGT | -0.0627
14 | CTACCTCA | 0.195
15 | CGCCAGGA | -0.19
16 | ATTCTGTA | 0.128
17 | CCCCTAGC | -0.348
18 | TTCTGCAA | -0.0159
19 | AGCGACAG | -0.107
20 | CGCGATGA | -0.0419
21 | ATTAGAGA | 0.0812
22 | CGCAAGAC | -0.0568
23 | ACTCGCTC | -0.0387
24 | AAAATACG | 0.266
25 | AACACGTT | -0.147

Row | Sequence | binding signal [E-score]
26 | GGAGGGTA | -0.0681
27 | CTTGGCTA | -0.0782
28 | GCACCAAA | -0.0766
29 | CATATGAG | -0.0118
30 | AACTATCG | 0.273
31 | AAGATAAC | 0.131
32 | CAACTCTG | -0.0947
33 | AATAGCAC | 0.018
34 | GACTGGCA | -0.264
35 | AGAGTTTG | 0.0726
36 | AAGCCATG | -0.16
37 | TAGACCTA | 0.145
38 | ACCAGCAA | -0.0779
39 | GGACCCGA | -0.216
40 | CTGCTAGC | -0.11
41 | ATGGTTCG | 0.0377
42 | GATGGGGC | -0.242
43 | CTAGAGAG | -0.13
44 | AAGCATCG | -0.0441
45 | CAGCACGA | 0.00213
46 | ACGGTAGG | 0.164
47 | GGAGGCCC | -0.322
48 | GCCCCAAC | -0.271
49 | CACAGAAG | 0.035
50 | GGAGTACA | -0.00366

Row | Sequence | binding signal [E-score]
51 | GACGGTAC | -0.0377
52 | CATTGAAG | -0.104
53 | CCGTCTGC | -0.105
54 | AGATTCAG | -0.0728
55 | AACAGGGA | -0.16
56 | CGCCTGCA | -0.227
57 | CCTTCCAA | -0.186
58 | CGCTTTTC | 0.129
59 | ATGGTTTA | 0.28
60 | CCAGAAGC | -0.131
61 | GGTATTGA | 0.111
62 | GATATAAC | 0.297
63 | CCTAAACG | 0.000713
64 | GGATAGCC | -0.209
65 | CGTCCGCA | -0.208
66 | AGGTTGAT | 0.0277
67 | GATCGACC | 0.0427
68 | AGGCACGC | -0.274
69 | GACGAGTA | 0.0943
70 | CACCGTCG | -0.167
71 | CGGGGCAG | -0.373
72 | ACATTTCA | 0.221
73 | CAGGCTAC | -0.192
74 | GAGCCTGA | -0.22
75 | CACCGTAA | 0.106

Row | Sequence | binding signal [E-score]
76 | ACTCCACT | -0.0722
77 | GTGGTGCA | -0.159
78 | GCGTTGTA | 0.0831
79 | CCGATGAG | -0.169
80 | GATACCCA | -0.014
81 | AGTCCCAA | -0.0257
82 | GCGTGTAA | 0.0219
83 | GCCACTAA | -0.0379
84 | ACTTATCT | 0.221
85 | GGTGCCAA | 0.00719
86 | GAGCACCC | -0.0764
87 | ACGGATCC | -0.15
88 | AGACCTCA | -0.134
89 | ATGCGAAA | 0.23
90 | ACGGTCCA | -0.176
91 | AATGGCGC | 0.0882
92 | AATTCCAG | 0.162
93 | TATGCTAA | 0.126
94 | GCCATGAC | -0.257
95 | AAGGTTCA | -0.138
96 | CAGTCACC | -0.186
97 | AAGACGTG | -0.173
98 | GGGAAGAC | -0.241
99 | CCTCTGAC | -0.206
100 | AGGTATGG | -0.117

Row | Sequence | binding signal [E-score]
101 | CACGCCCG | -0.284
102 | AGGCAGCG | -0.107
103 | ACATACAA | 0.288
104 | ATATGCGC | 0.205
105 | CGCTTCCC | -0.174
106 | CCCTAATA | -0.128
107 | CGCATCAA | -0.109
108 | AAAGTCCT | -0.0609
109 | AATCTCCA | 0.0949
110 | AAGCAGAA | 0.172
111 | AGTAAACA | 0.0358
112 | CCGGTACC | -0.00258
113 | CAAGTGTC | -0.101
114 | TTCACGAA | 0.136
115 | CCTCTTAA | -0.103
116 | ACCCCAAA | -0.0824
117 | CCACGTCG | -0.171
118 | AGATAAGG | 0.0143
119 | TACGTAAA | 0.235
120 | CAGATCTG | -0.169
121 | ACCCGAAT | 0.00906
122 | AAAATTGC | 0.176
123 | AACAAGCG | -0.00832
124 | TCACGTAA | -0.0226
125 | CCTTTTCA | -0.0956

Row | Sequence | binding signal [E-score]
126 | CGTTTCAA | -0.0393
127 | ATCCAGTG | -0.118
128 | CGTTAGGC | -0.121
129 | TATTCCAA | 0.0785
130 | GTTGAGAA | 0.114
131 | GGTAACGA | 0.0496
132 | CACACCTC | -0.0614
133 | CTGGTTAC | 0.0826
134 | ATCGTCCG | -0.127
135 | TAGCGTGA | 0.00384
136 | AGTTCTCG | 0.0661
137 | CCGTTGCG | -0.23
138 | CAAGGCGA | -0.256
139 | GGGTTACA | -0.0771
140 | ATGTGCCC | -0.0332
141 | GAACGTAC | 0.0605
142 | ACCCGCTG | -0.313
143 | CTTTTTTA | -0.151
144 | TAATGTCA | 0.0998
145 | CATTATCA | 0.288
146 | CCGTCGAC | -0.189
147 | ATCCACAG | -0.0767
148 | AGAATACA | 0.191
149 | ACTTAAGG | 0.0365
150 | CTCAGAGC | -0.0822

Row | Sequence | binding signal [E-score]
151 | CCACTCTC | -0.129
152 | GCGGTTAA | 0.123
153 | CGCGCCCA | -0.263
154 | TATGCACA | 0.112
155 | CTTTGACC | 0.0127
156 | GCCGCTAA | 0.0977
157 | CCACCTCG | -0.108
158 | GAGAGTAC | 0.0998
159 | CTGCGTCC | -0.338
160 | AATCGTGG | 0.0422
161 | CTACTCTC | -0.131
162 | ACTTGCTG | 0.12
163 | ATGCACCA | 0.109
164 | GCAGCATA | -0.0778
165 | ACAGCAGT | -0.122
166 | AAGTAGCA | 0.259
167 | AAATTACG | 0.273
168 | ACACCAAT | -0.0322
169 | GTCCGGGA | -0.213
170 | ACTCGGCT | 0.00974
171 | AAACATAT | 0.276
172 | CGTAACCA | -0.225
173 | ACCCTATA | 0.153
174 | CCACTACA | 0.0923
175 | GGCGCGCA | -0.241

Row | Sequence | binding signal [E-score]
176 | ATGGCTGA | 0.0806
177 | GGGTATAC | 0.00875
178 | ATGCACTG | -0.0611
179 | GGCTTTTA | -0.0516
180 | ACTCTCTG | -0.0614
181 | AAAAAAGG | 0.0308
182 | ACGTACCT | -0.00878
183 | TCAGTCGA | -0.0223
184 | AGTTCCCG | -0.0164
185 | AGAGTTGA | -0.0835
186 | AAAACCTT | -0.0438
187 | AAGGGTAA | 0.183
188 | AAAATTCT | 0.129
189 | AGTGCTGG | -0.0287
190 | CGTTAAGA | -0.0342
191 | CTAAGAAA | 0.0591
192 | AGAAGCTG | -0.0756
193 | CTCCCAGA | -0.183
194 | CATCTCCG | -0.244
195 | ACAAAGTG | 0.0122
196 | GACTAGGA | -0.0139
197 | ACCTGTAG | 0.188
198 | AACCTATA | 0.183
199 | AATTGCCT | -0.159
200 | AATTGGGC | -0.217

Row | Sequence | binding signal [E-score]
201 | AAATCGTC | 0.0128
202 | CCCGTATC | -0.04
203 | AAAGGTCC | -0.222
204 | CGTGCTAG | 0.0138
205 | CATGAAAC | -0.0657
206 | CAGCGCGC | -0.211
207 | TCAATGCA | -0.132
208 | GTAAAGTA | 0.266
209 | GCACCATA | 0.11
210 | CATACAGG | -0.0755
211 | GAAGCTGC | -0.161
212 | ACGCCACT | -0.0989
213 | ATTCGACC | -0.138
214 | CAGGGGAA | -0.0921
215 | GAGGTAAA | 0.197
216 | CTGAAGCC | -0.138
217 | CTACGGTC | -0.00263
218 | CGGTCAGA | -0.0545
219 | GGTCCAGA | -0.282
